About 14,000 (4.5%) of roughly 310,000 compounds showed an effect of 50% or more. Effects have a minus sign here. Some of the results follow.
target: human ether-à-go-go-related gene (hERG) potassium channel (human, UniProt Q12809); assay: primary screen, population patch clamp on CHO cells stably expressing hERG
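Further: peak tail current of the secondary pulse compared with the same well before compound.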

Chain of human ether-à-go-go-related gene (hERG) potassium channel (Q12809 whole entry, looked up): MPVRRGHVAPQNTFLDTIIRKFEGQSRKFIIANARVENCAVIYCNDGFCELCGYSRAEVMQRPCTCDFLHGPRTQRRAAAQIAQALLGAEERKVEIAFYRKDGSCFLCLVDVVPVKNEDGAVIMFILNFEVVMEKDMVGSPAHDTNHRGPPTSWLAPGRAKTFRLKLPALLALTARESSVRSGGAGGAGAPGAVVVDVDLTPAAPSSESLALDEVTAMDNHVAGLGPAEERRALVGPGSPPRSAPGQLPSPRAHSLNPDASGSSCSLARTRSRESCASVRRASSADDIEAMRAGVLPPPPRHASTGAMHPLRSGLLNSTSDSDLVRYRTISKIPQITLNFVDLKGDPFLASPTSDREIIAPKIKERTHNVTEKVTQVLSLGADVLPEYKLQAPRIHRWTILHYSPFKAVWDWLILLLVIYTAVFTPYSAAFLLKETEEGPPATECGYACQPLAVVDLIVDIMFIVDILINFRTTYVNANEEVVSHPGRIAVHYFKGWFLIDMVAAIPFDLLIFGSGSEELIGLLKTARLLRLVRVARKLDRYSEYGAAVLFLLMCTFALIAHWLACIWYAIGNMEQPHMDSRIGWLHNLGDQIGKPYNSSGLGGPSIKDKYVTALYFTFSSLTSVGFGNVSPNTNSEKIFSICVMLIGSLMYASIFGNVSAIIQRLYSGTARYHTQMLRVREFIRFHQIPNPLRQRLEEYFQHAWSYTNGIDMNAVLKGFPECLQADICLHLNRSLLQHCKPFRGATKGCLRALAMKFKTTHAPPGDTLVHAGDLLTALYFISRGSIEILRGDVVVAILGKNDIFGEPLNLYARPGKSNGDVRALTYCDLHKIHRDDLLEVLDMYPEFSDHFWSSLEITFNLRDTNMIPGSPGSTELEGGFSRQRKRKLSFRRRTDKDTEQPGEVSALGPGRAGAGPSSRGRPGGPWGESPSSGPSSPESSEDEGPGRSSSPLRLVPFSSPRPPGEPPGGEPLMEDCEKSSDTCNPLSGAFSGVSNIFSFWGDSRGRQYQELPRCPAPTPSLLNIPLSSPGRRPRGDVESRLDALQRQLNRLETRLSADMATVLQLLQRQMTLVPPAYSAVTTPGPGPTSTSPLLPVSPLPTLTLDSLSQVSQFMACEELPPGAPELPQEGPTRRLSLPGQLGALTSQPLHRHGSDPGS

Row | SMILES | hERG current change (%, negative = inhibition) at 10uM
1 | CC(=O)Nc1nnc(SCC(=O)c2ccc3c(c2)Cc2ccccc2-3)s1 | 17.2%
2 | COc1ccc(Cl)cc1C(=O)Nc1ccc(NC(C)=O)cc1 | 19.9%
3 | COc1ccc(CC(=O)NC(C)c2nnc(SCc3nc4ccccc4c(=O)[nH]3)n2C)cc1 (stereo not shown) | 10.5%
4 | O=c1[nH]c2ccccc2c(O)c1-[n+]1ccccc1.[Cl-] | 22.5%
5 | COc1ccc(Cc2nc3ccccc3n2C)cc1.Cl | -5.24%
6 | Cc1ccc(N2CCN(C(=O)c3ccccc3NC(=O)/C=C\C(=O)O)CC2)cc1 | -20.9%
7 | CCOc1ccccc1/C=N/Nc1ccc(Cl)nn1 | 14%
8 | CCOC(=O)c1nnn(-c2nonc2N)c1-c1cccc2ccccc12 | -0.911%
9 | CCN1CCN(CCCNC(=O)c2ccc(CS(=O)c3ccc(Br)cc3)o2)CC1 (stereo not shown) | 24.5%
10 | O=C(Nc1ccc(Cl)cc1)C1CCCN(S(=O)(=O)c2cnc[nH]2)C1 (stereo not shown) | 16.6%
11 | c1ccc(OCc2nnc(-c3ccccc3)o2)cc1 | 9.03%
12 | C/C(=N\NC(=O)c1ccc2c(c1)OCCO2)c1ccccc1 | 3.93%
13 | CCCCN(CC)CCCNC(=O)c1csc2c1CCCCC2 | 43%
14 | C=CCn1c(C)cc(C(=O)CN2C(=O)NC3(CCCc4ccccc43)C2=O)c1C (stereo not shown) | 2.9%
15 | Fc1cccc(NC(=S)NNc2ccccc2)c1 | 15.1%
16 | COc1ccc(C(=O)C2CCCN(Cc3ccon3)C2)cc1OC (stereo not shown) | 11.2%
17 | COc1ccc(CS(=O)(=O)c2ncn[nH]2)cc1 | -17.8%
18 | Cc1cc2oc(=O)cc(CN(C)Cc3cccc(F)c3)c2cc1C | 10.6%
19 | COc1cccc(-c2ccc(SCC(=O)NCCc3ccccc3)nn2)c1 | -41.7%
20 | Cc1ccc(S(=O)(=O)N2CCC(C(=O)N3CCC(C(=O)NCC4CCCO4)CC3)CC2)cc1 (stereo not shown) | -7.13%
21 | CCOc1cc(-c2cc(-c3ccc(C)o3)nc(N)c2C#N)ccc1O | -10.2%
22 | CCC1C=CC=CC[C@H](C)[C@@H](O)[C@](C)(O)C(=O)[C@@H](C)[C@H](O)[C@@H](C)C(=O)[C@H](C)[C@@H](O)[C@H](C)C=CC(=O)OC2[C@@H](C)C(CC1)OC1(CC[C@@H](C)C(C[C@H](C)O)O1)[C@@H]2C (stereo partly shown) | 16.8%

Row | SMILES | hERG current change (%, negative = inhibition) at 10uM
23 | N#CCCN(C(=O)CSc1nnc(-c2ccncc2)n1C1CC1)c1ccccc1 | -2.57%
24 | Cc1ccc(S(=O)(=O)CCC(=O)NCc2ccccc2F)cc1 | -1.66%
25 | CCc1ccc(OCCCCN(C)Cc2ccccc2)cc1.O=C(O)C(=O)O | -47.7%
26 | Cn1nc(C(=O)N2CCN(S(=O)(=O)/C=C/c3ccccc3)CC2)c2ccccc2c1=O | -65.1%
27 | O=C(NCc1cccs1)c1ccccc1 | 4.9%
28 | O=C1C(Cl)=C(N2CCOCC2)C(=O)N1c1cccc(Cl)c1 | -1.92%
29 | CCN(CCCNC(=O)C1CCN(S(=O)(=O)c2cccc3nonc23)CC1)Cc1ccccc1 | -57.2%
30 | Cc1ccc(S(=O)(=O)CCC(=O)OC(C)C(=O)NC2CCCCC2C)cc1 (stereo not shown) | -1.21%
31 | N#Cc1c(NC(=O)COC(=O)c2ccc(F)cc2)sc2c1CCC2 | -13.7%
32 | COc1cc(C(=O)NCCOc2ccc(C)c(C)c2)cc(OC)c1OC | -10.7%
33 | C/C(=N\Nc1ccc(S(N)(=O)=O)cc1[N+](=O)[O-])c1cccs1 | 25.7%
34 | c1ccc(CN2CCOCCOCCOCCOCCOCCOCC2)cc1 | -3.44%
35 | CCCCCn1c(=O)[nH]c2cc(C(=O)NCCCN3CCCCC3)ccc2c1=O | -33.5%
36 | Nc1nc(SCc2ccccc2Cl)[nH]c(=O)c1-c1ccccc1 | 14.2%
37 | CCCC(=O)C1=C(N2CCCC2)CC(C)(C)C(C(=O)OC)C1=O (stereo not shown) | 7.45%
38 | Cc1cc(NC(=O)c2sc3ccccc3c2O)no1 | 17.2%
39 | CCCN(CCC)CCCNC(=S)Nc1ccc2nc(N3CCN(C)CC3)cc(C)c2c1 | 8.86%
40 | O=C(O)CCc1nnc(SCC(=O)Nc2ccc(Cl)c(C(F)(F)F)c2)[nH]c1=O | 19.8%
41 | COc1ccc(NC(C)=[N+](C)CCNS(=O)(=O)c2ccc(Cl)cc2)cc1Cl.[I-] | -69.5%
42 | Cc1csc(C(C)NC(=O)c2ccc(OC3CCN(CCc4ccccc4)CC3)cc2)n1 (stereo not shown) | -66.2%
43 | Cc1cc(-c2ccccc2)[nH]c(=O)c1C#N | 9.63%
